“And” between values parts separate entries of the source, which are not always exact repeats. Identical values can stand only once. This continues a long series; more values of the same kind are listed elsewhere. Inconclusive results and toxic doses are left out.
Test system: BDF1 mice, P388 leukemia ip, median survival T/C
Test: NCI In Vivo Anticancer Drug Screen. Data for tumor model P388 Leukemia (intraperitoneal) in B6D2F1 (BDF1) mice
Conditions: endpoint: median survival time, higher = longer survival
Protocol: The antitumor activity of compounds was measured in mice bearing transplantable tumors. Survival or tumor size were measured and the results are expressed as the measurement made in the treated group (T) divided by the measurement made in the vehicle treated control group (C). The tumor model used in this assay is P388 Leukemia (intraperitoneal) in B6D2F1 (BDF1) mice

## COc1cccc2c1C(=O)c1c(O)c3c(c(O)c1C2=O)C[C@@](O)(C(=O)CO)C[C@@H]3OC1CC(N)C(O)C(C)O1 (stereo not given in full)
dose: 0.2 mg/kg/injection, schedule: Q01DX009 (ip), vehicle: water
  T/C: 168 % of control
dose: 0.25 mg/kg/injection, schedule: Q01DX009 (ip), vehicle: saline
  T/C: 158 % of control
dose: 0.39 mg/kg/injection, schedule: Q01DX009 (ip), vehicle: water
  T/C: 184 % of control
dose: 0.5 mg/kg/injection, schedule: Q03HX008 (ip), vehicle: water
  T/C: 177 % of control
dose: 0.5 mg/kg/injection, schedule: Q06HX004 (ip), vehicle: water
  T/C: 163 % of control
dose: 0.65 mg/kg/injection, schedule: Q01DX009 (ip), vehicle: saline
  T/C: 172 % of control and 183 % of control
dose: 0.65 mg/kg/injection, schedule: Q03HX008 (ip), vehicle: water
  T/C: 155 % of control
dose: 0.78 mg/kg/injection, schedule: Q01DX009 (ip), vehicle: water
  T/C: 166 % of control and 211 % of control
dose: 0.8 mg/kg/injection, schedule: Q01DX004 (ip), vehicle: saline
  T/C: 169 % of control
dose: 1.0 mg/kg/injection, schedule: Q01DX001 (ip), vehicle: saline
  T/C: 154 % of control
dose: 1.0 mg/kg/injection, schedule: Q01DX004 (ip), vehicle: saline
  T/C: 163 % of control
dose: 1.0 mg/kg/injection, schedule: Q01DX009 (ip), vehicle: saline
  T/C: 179 % of control
dose: 1.0 mg/kg/injection, schedule: Q03HX008 (ip), vehicle: water
  T/C: 180 % of control
dose: 1.0 mg/kg/injection, schedule: Q06HX004 (ip), vehicle: water
  T/C: 200 % of control
dose: 1.08 mg/kg/injection, schedule: Q01DX009 (ip), vehicle: saline
  T/C: 172 % of control and 210 % of control
dose: 1.08 mg/kg/injection, schedule: Q03HX008 (ip), vehicle: water
  T/C: 180 % of control
dose: 1.08 mg/kg/injection, schedule: Q04DX003 (ip), vehicle: water
  T/C: 156 % of control
dose: 1.3 mg/kg/injection, schedule: Q01DX004 (ip), vehicle: saline with Tween-80
  T/C: 212 % of control
dose: 1.3 mg/kg/injection, schedule: Q01DX004 (ip), vehicle: saline
  T/C: 191 % of control and 207 % of control
dose: 1.3 mg/kg/injection, schedule: Q04DX003 (ip), vehicle: saline + alcohol
  T/C: 198 % of control
dose: 1.3 mg/kg/injection, schedule: Q04DX003 (ip), vehicle: water
  T/C: 194 % of control and 203 % of control
dose: 1.44 mg/kg/injection, schedule: Q04DX003 (ip), vehicle: saline
  T/C: 203 % of control
dose: 1.5 mg/kg/injection, schedule: Q01DX001 (ip), vehicle: saline
  T/C: 185 % of control
dose: 1.5 mg/kg/injection, schedule: Q04DX003 (ip), vehicle: water
  T/C: 221 % of control
dose: 1.6 mg/kg/injection, schedule: Q01DX004 (ip), vehicle: saline
  T/C: 180 % of control
dose: 1.73 mg/kg/injection, schedule: Q04DX003 (ip), vehicle: water
  T/C: 201 % of control
dose: 1.8 mg/kg/injection, schedule: Q01DX009 (ip), vehicle: saline
  T/C: 210 % of control
dose: 1.8 mg/kg/injection, schedule: Q03HX008 (ip), vehicle: water
  T/C: 216 % of control
dose: 2.16 mg/kg/injection, schedule: Q01DX004 (ip), vehicle: saline with Tween-80
  T/C: 206 % of control
dose: 2.16 mg/kg/injection, schedule: Q04DX003 (ip), vehicle: saline + alcohol
  T/C: 189 % of control
dose: 2.16 mg/kg/injection, schedule: Q04DX003 (ip), vehicle: water
  T/C: 219 % of control and 155 % of control
dose: 2.2 mg/kg/injection, schedule: Q04DX003 (ip), vehicle: saline
  T/C: 200 % of control
dose: 2.4 mg/kg/injection, schedule: Q04DX003 (ip), vehicle: saline
  T/C: 210 % of control
dose: 2.88 mg/kg/injection, schedule: Q04DX003 (ip), vehicle: water
  T/C: 201 % of control
dose: 3.0 mg/kg/injection, schedule: Q01DX001 (ip), vehicle: saline
  T/C: 211 % of control
dose: 3.0 mg/kg/injection, schedule: Q01DX009 (ip), vehicle: saline
  T/C: 170 % of control
dose: 3.0 mg/kg/injection, schedule: Q04DX004 (ip), vehicle: saline
  T/C: 169 % of control
dose: 3.6 mg/kg/injection, schedule: Q01DX001 (ip), vehicle: water
  T/C: 204 % of control
dose: 3.6 mg/kg/injection, schedule: Q04DX003 (ip), vehicle: water
  T/C: 165 % of control
dose: 4.0 mg/kg/injection, schedule: Q04DX004 (ip), vehicle: saline
  T/C: 197 % of control
dose: 4.4 mg/kg/injection, schedule: Q01DX001 (ip), vehicle: saline
  T/C: 189 % of control and 221 % of control
dose: 5.0 mg/kg/injection, schedule: Q04DX003 (iv), vehicle: saline
  T/C: 180 % of control
dose: 5.0 mg/kg/injection, schedule: Q04DX003 (sc), vehicle: saline
  T/C: 165 % of control
dose: 5.0 mg/kg/injection, schedule: Q04DX004 (ip), vehicle: saline
  T/C: 189 % of control
dose: 6.0 mg/kg/injection, schedule: Q01DX001 (ip), vehicle: water
  T/C: 207 % of control
dose: 6.0 mg/kg/injection, schedule: Q04DX003 (ip), vehicle: saline
  T/C: 185 % of control
dose: 6.0 mg/kg/injection, schedule: Q04DX003 (ip), vehicle: water
  T/C: 162 % of control
dose: 6.33 mg/kg/injection, schedule: Q01DX001 (ip), vehicle: water
  T/C: 169 % of control
dose: 6.6 mg/kg/injection, schedule: Q01DX001 (iv), vehicle: saline
  T/C: 165 % of control and 168 % of control
dose: 7.5 mg/kg/injection, schedule: Q01DX001 (ip), vehicle: saline
  T/C: 194 % of control
dose: 8.44 mg/kg/injection, schedule: Q01DX001 (ip), vehicle: water
  T/C: 183 % of control
dose: 9.4 mg/kg/injection, schedule: Q04DX003 (ip), vehicle: saline
  T/C: 201 % of control
dose: 9.6 mg/kg/injection, schedule: Q04DX003 (ip), vehicle: saline
  T/C: 220 % of control
dose: 10.0 mg/kg/injection, schedule: Q01DX001 (iv), vehicle: saline
  T/C: 197 % of control and 210 % of control
dose: 10.0 mg/kg/injection, schedule: Q01DX001 (sc), vehicle: saline
  T/C: 175 % of control
dose: 10.0 mg/kg/injection, schedule: Q04DX003 (ip), vehicle: water
  T/C: 87 % of control
dose: 11.25 mg/kg/injection, schedule: Q01DX001 (ip), vehicle: water
  T/C: 189 % of control
dose: 1440.0 micrograms/kg/injection, schedule: Q04DX003 (ip), vehicle: water
  T/C: 163 % of control
dose: 2400.0 micrograms/kg/injection, schedule: Q04DX003 (ip), vehicle: water
  T/C: 163 % of control
dose: 4000.0 micrograms/kg/injection, schedule: Q04DX003 (ip), vehicle: water
  T/C: 196 % of control

From PubChem BioAssay AID328 (DTP/NCI, 2004)
